# Measurements reported in paper PMC10668032.
# This is one part of the list. At the low end of the ranking the order means little.
# Biological target: SIX1 homeodomain (reference allele) (UniProt Q15475)
# Test: universal protein binding microarray
# Settings: Universal all-10-mer PBM (8x60K, AMADID 030236), 300 nM GST-tagged protein, Alexa Fluor 488 anti-GST; buffer, salt, pH and temperature not stated; high values mean tight binding; most listed sequences are background and not binding sites; double strand, one strand shown
row,Sequence,binding signal [E-score]
1,AATAGCCA,-0.0045
2,ACCTTAGA,-0.0313
3,ACATCCTC,0.09
4,CCATATCA,0.472
5,CACCGTTA,-0.0498
6,CACCCGGC,0.192
7,CTAGGGTC,-0.208
8,GGCGAGCA,-0.137
9,GTGTAACA,0.0913
10,CTATATAG,0.182
11,GGGCGGGA,0.0521
12,ACCTTGCC,-0.306
13,CAAAACGG,-0.105
14,TGACTTAA,-0.2
15,CCGCGCTC,-0.0987
16,CACAGGGC,-0.322
17,ACTGAACG,-0.301
18,CTGAACGA,-0.183
19,ACTTTCCC,-0.208
20,CGGGGTCC,-0.0447
21,CCCCAGGA,0.153
22,TATGCTCA,-0.00662
23,ACAGGCGT,-0.135
24,ACTGCGTA,-0.0835
25,CCGAAGAG,-0.0447

row,Sequence,binding signal [E-score]
1,CCATGTAC,0.0222
2,ATACGGTC,0.256
3,GCAGAAAC,-0.254
4,TGAGACAA,-0.00214
5,CCCGACGA,0.0154
6,AGCTATAA,-0.00342
7,ATAAACAC,-0.00724
8,AACTAAAA,-0.132
9,ACATTCGA,-0.0494
10,CCTGCACC,-0.147
11,GTACACCA,0.233
12,CATTGAGG,-0.117
13,AGCAGCAA,-0.235
14,AGGAGTAT,0.309
15,ATAAATAA,-0.0823
16,AAGAACAA,-0.145
17,AACCGGCT,0.0213
18,ATTCTTTG,-0.0667
19,TCAGGCAA,-0.224
20,AAAGTCCG,-0.155
21,CGACCTCC,-0.0335
22,TAACACAA,0.0612
23,CAAATCCA,-0.00587
24,CTCGGAAC,-0.0992
25,ACCTCCGA,0.027

row,Sequence,binding signal [E-score]
1,TAGCAACA,-0.137
2,AAGTGGGA,-0.0536
3,CCGAACCA,-0.0252
4,CAGCCTAC,-0.0926
5,CTAATGCC,-0.216
6,ACTGTTAT,-0.128
7,ACGAATCC,0.153
8,TTGCCAAA,-0.221
9,GACTCGCA,-0.113
10,AATGGGAA,-0.252
11,AGTAGCAC,-0.157
12,CGCCCCCG,0.0534
13,CGTACCAC,-0.0505
14,CTCTTTAC,-0.109
15,GGGCAGTA,0.0685
16,ATGCGTTA,0.139
17,AATCATGA,-0.0171
18,CTCCGTCC,-0.109
19,CATAACAG,-0.117
20,AACGTGCT,-0.0718
21,GAATCCTA,0.057
22,ATAGCCTA,0.157
23,AGGCTGGA,-0.114
24,CTACTATA,0.153
25,AGCGCCGC,-0.177

row,Sequence,binding signal [E-score]
1,CTTCGATA,0.342
2,CCCCCTGA,0.0527
3,CTCGCACA,-0.15
4,ATGAACAC,0.0146
5,CGGACAGC,-0.269
6,ACTCTCAC,0.0478
7,TCTAACAA,-0.104
8,ACTCACAG,-0.198
9,CTATCTCC,0.217
10,AAATACGG,0.19
11,CTGGTTAA,-0.178
12,AACACACC,0.059
13,ATCTCAAC,0.233
14,AATTGGTC,-0.27
15,AGTACCCA,-0.0339
16,AACCTGGT,0.0932
17,CCTACGCA,-0.0678
18,CTAGTAAC,-0.198
19,GATGGTAC,-0.0915
20,ATCCCCTG,0.334
21,GTTGGATA,0.295
22,CCCGTACC,0.119
23,AATAGGTG,0.035
24,TAGCCGGA,0.116
25,GAGACCCC,0.235

row,Sequence,binding signal [E-score]
1,CAGAATGC,-0.237
2,ATACTGTA,0.368
3,GTCTTTCA,-0.141
4,GCCGAGAC,-0.0478
5,AACACAAC,-0.0532
6,GCTTTGCC,-0.239
7,CACACCAG,0.156
8,ATTGGACA,0.0441
9,AAGGATGA,0.0643
10,GTAAGTAC,-0.131
11,ACTTTCGC,-0.245
12,AGATCTTA,0.13
13,CCACCTTA,-0.159
14,ATATTGAT,0.341
15,CGGCGAAA,0.0126
16,ATATGATG,0.202
17,AAGACTGT,-0.325
18,GAGCCGTA,0.175
19,CTACACTC,0.0392
20,GTCTTGCA,-0.218
21,AGGCACAC,-0.187
22,GGCTGTAC,-0.149
23,GAGGCGAA,-0.0438
24,CGATGTTA,-0.0616
25,GATTGCCA,-0.058

row,Sequence,binding signal [E-score]
1,GATAATCA,0.107
2,AGAGCATG,-0.123
3,GAGTTCAA,-0.239
4,AGCGCCGA,-0.147
5,CAGAGCCA,-0.183
6,CCGCCATC,0.0425
7,TAAGTTGA,-0.0998
8,ATCGACGG,0.0598
9,CGCAGGCC,-0.12
10,ATTGGATC,0.365
11,CTCACGGC,-0.0659
12,AAAACACG,-0.0412
13,CCCTAGAG,0.0276
14,CTGGTAGC,-0.08
15,CGTAACCC,0.045
16,ACCCTTCC,0.0963
17,AGTGCTCA,-0.074
18,ATCGCACA,0.176
19,ACCACAGG,-0.226
20,ACTTTTAC,-0.179
21,TCGCGCCA,-0.139
22,ACTGATAA,0.125
23,CTAATAGC,-0.085
24,CTCGTTGA,-0.0179
25,CCGGTTCC,-0.135

row,Sequence,binding signal [E-score]
1,AAAACACC,0.013
2,ACTATACC,0.294
3,ATCAGAAT,0.119
4,ATACACAA,0.232
5,AGCATACG,0.143
6,ATATGACC,0.189
7,GCCCGGGC,-0.0884
8,ATGACGTG,-0.241
9,CACAGACG,-0.0186
10,ACTTATGG,-0.158
11,AGGGTTGG,-0.0556
12,AATCCATG,0.11
13,GTAACCGA,0.0197
14,AACGCTCA,-0.286
15,ATTAATAA,0.02
16,TCAAGGAA,0.0366
17,GCGTGGCC,-0.241
18,GCTTAGGA,0.00971
19,CAGTCCGC,-0.287
20,CGGTCAAC,-0.0276
21,GTTCTTAA,-0.0751
22,CCTACCCA,-0.109
